Measured values: PubChem BioAssay AID686971 (National Center for Advancing Translational Sciences (NCATS), 2013)
Among all 360,000 compounds or so, about 7,500 (2.1%) were called active. This list was built around the results that the source calls inconclusive (neither active nor inactive); the mix of calls is not that of the screen. Calls follow the shape of the dose curve; as a rule, active = well fitted cell-killing curve with a large enough effect; inconclusive = small, poorly fitted or top-dose-only effect, or effect the other way, or another doubt; inactive = no such curve, though single readings can be large or run the other way. Potencies of inconclusive entries are left out as doubtful fits.

Experiment: qHTS for induction of synthetic lethality in tumor cells producing 2HG: qHTS for the HT-1080-IDH1KD cell line;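 as to activity, negative = toxicity: 0% = DMSO wells and -100% = cell-free medium wells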
Conditions: HT-1080 IDH1 knockdown viability, ATP luminescence, 48 h; activity, negative = toxicity: at 46.1 µM (top of the series) unless noted
Procedure, shortened: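 Luminescent ATP read-out (CellTiter-Glo, 10 min at room temperature) after 48 h compound exposure at 37 °C gave viability of IDH1-knockdown HT-1080 cells. Activity was normalised to DMSO and cell-free wells, then fitted as concentration-response curves.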
Potency is read from the fitted curve at half-maximal effect; tags tell the direction and shape of the fitted curve.

SMILES	Potency	activity, negative = toxicity
CCOC(=O)c1ccc(NC(=S)N(CCN(C)C)Cc2cccs2)cc1	inconclusive [cytotoxic, partial curve, poor fit]	–
C/C(=N\NC(=O)c1cc2ccccc2cc1O)c1cccs1	inconclusive [cytotoxic, partial curve]	–
CCCCCCOc1ccc(OC(=O)c2cccnc2)cc1	inconclusive [cytotoxic, single point]	–
O=C(CCn1c(=O)oc2ccccc21)Nc1ccccc1	inactive	–
COc1cc(CNCc2ccccn2)ccc1OCc1c(Cl)cccc1Cl	inconclusive [cytotoxic, single point]	–
CCCCC(=O)N1C/C=C\C(c2ccc(OC)cc2)N(Cc2ccc(F)cc2)C(=O)C1 (stereo not drawn)	inconclusive [cytotoxic, full curve, poor fit]	–
CC(C)C/C(O)=C/c1nc2cc(Cl)ccc2oc1=O	inconclusive [cytotoxic, single point]	–
O=C(NCCc1ccccc1)C(=O)NCC1OCCN1S(=O)(=O)c1ccccc1 (stereo not drawn)	inactive	–
O=C(Nc1cccc(Cl)c1)Nc1ccccc1C(=O)O	–	inconclusive: -28.3% [cytotoxic]
COc1ccc(COc2cc(-c3cccc(OC)c3)nc3ccc(NC(=O)c4cccnc4)cc23)cc1	inconclusive [cytotoxic, single point]	–
N#Cc1c(N)[nH]c2ccc(Sc3ccccc3)cc12	active: 7.31 µM	–
CCC(C)c1ccc(NC(=S)NCc2cccs2)cc1 (stereo not drawn)	inconclusive [cytotoxic, single point]	–
O=C(NN1CCOCC1)c1ccccc1	inactive	–
CCN(Cc1ccccc1)S(=O)(=O)c1cc2[nH]c(=O)c(=O)[nH]c2cc1C	inactive	–
CC1CC(C)CN(c2ncc3c(n2)CC(c2ccccc2Cl)CC3=O)C1 (stereo not drawn)	inactive	–
O=C1CN(C(=O)c2cc(Br)c(Br)s2)c2ccccc2N1	active: 20.6 µM	–
CC(C)(C)c1ccc(C(=O)Nc2ccc(CN3CCS(=O)(=O)CC3)cc2)cc1	inconclusive [cytotoxic, partial curve, poor fit]	–
Cc1snc(S(=O)(=O)Cc2ccccc2Cl)c1C#N	inconclusive [rising, partial curve]	–
COc1ccccc1NC(=S)NNC(=O)c1c(Cl)c(C)nn1C	inconclusive [cytotoxic, single point]	–
COc1cccc(NC(=O)[C@H](Cc2ccccc2)NC(=O)[C@@H]2Cc3ccccc3CN2)c1	inconclusive [cytotoxic, partial curve]	–
CCCc1cc2c(cc1NC(=O)c1ccc(Br)cc1)OCO2	–	inconclusive: -32.4% [cytotoxic]
COc1cc(C=C2CCCC(=Cc3ccc(OCC4CO4)c(OC)c3)C2=O)ccc1OCC1CO1 (stereo not drawn)	inconclusive [cytotoxic, single point]	–

SMILES	Potency	activity, negative = toxicity
COc1cccc(/C=N/NC(=O)CNC(=O)c2cccs2)c1O	inconclusive [cytotoxic, partial curve]	–
COc1ccc(C2Nc3ccc(NC(=O)CO)cc3C(=O)N2Cc2cccc(Cl)c2)cc1COc1ccc(NC(C)=O)cc1 (stereo not drawn)	inconclusive [cytotoxic, single point]	–
O=C(Cn1c(-c2cscn2)nc2ccccc21)Nc1ccc2ccccc2c1	inconclusive [cytotoxic, single point]	–
O=C(CN(c1ccc(Br)cc1)S(=O)(=O)c1ccc(Cl)c([N+](=O)[O-])c1)NCC1CCCO1 (stereo not drawn)	inconclusive [cytotoxic, single point]	–
Cc1cccc(C)c1NC(=O)Cn1nnc(-c2ccc(N3CCOCC3)cc2)n1	inconclusive [cytotoxic, single point]	–
Cc1cc(N2CCN(c3ccccc3Cl)CC2)n2cc(-c3ccccc3)nc2n1	inconclusive [cytotoxic, single point]	–
COc1ccc(Cl)cc1-c1cc(C(=O)Nc2ccc(C)c(NS(C)(=O)=O)c2)[nH]n1	active: 23.1 µM	–
Cc1ccc(OCC(O)CNC2CCCC2)cc1C (stereo not drawn)	inactive	–
CCOc1cc(CNc2ccc(N(C)C)cc2)cc(Br)c1OCC(=O)NC(C)(C)C	inconclusive [cytotoxic, single point]	–
CCc1nc2ccc(C(=O)N3CCN(C(C)=O)CC3)cn2c1N(CCC(C)C)CCN(C)C	inactive	–
O=C(Cn1ncc(Cl)c(Cl)c1=O)NC1CCCCC1	active: 14.6 µM	–
CC(=O)N1CCN(C(=O)c2cc(-c3ccc(Cl)s3)nc3ccccc23)CC1	inconclusive [cytotoxic, single point]	–
CCCCCCN1CCN(C2CN(Cc3cn(Cc4ccc(Cl)cc4)nn3)S(=O)(=O)C2)CC1 (stereo not drawn)	–	inconclusive: -32.7% [cytotoxic]
Cc1cccc(Nc2nc(-c3ccccc3)c(C(=O)Nc3cccnc3)s2)c1	inconclusive [cytotoxic, single point]	–
CCNS(=O)(=O)c1ccc(NC(=O)Nc2cc(C)ccc2OC)cc1	inconclusive [cytotoxic, single point]	–
COc1ccc(-c2cccc(-c3cc(=O)oc4cc(OC)cc(OC)c34)c2)cc1	active: 0.58 µM	–
COc1cccc(NC(=O)COC(=O)c2c3c(nc4ccccc24)CCC(C)C3)c1 (stereo not drawn)	inconclusive [cytotoxic, single point]	–
O=C(Nc1nc(-c2cc(Cl)sc2Cl)cs1)c1ccccc1	inconclusive [cytotoxic, single point]	–
C=CCN1C(=O)C2(NNc3ccccc3O2)c2ccccc21 (stereo not drawn)	inconclusive [cytotoxic, single point]	–
COc1ccc(CN(C(=O)c2snc(C(N)=O)c2N)C(CC(C)C)C(=O)NC2CCCCC2)cc1 (stereo not drawn)	inconclusive [cytotoxic, partial curve]	–
COc1ccc(-c2cc(C)no2)cc1S(=O)(=O)Nc1cccc(C)c1	inconclusive [cytotoxic, single point]	–
